# Data as given in paper PMC12136788.
# The other results are listed elsewhere or left out.
# T1: UNK ZnF1-3 (human, UniProt Q9C0B0 31-174)
# T1 sequence: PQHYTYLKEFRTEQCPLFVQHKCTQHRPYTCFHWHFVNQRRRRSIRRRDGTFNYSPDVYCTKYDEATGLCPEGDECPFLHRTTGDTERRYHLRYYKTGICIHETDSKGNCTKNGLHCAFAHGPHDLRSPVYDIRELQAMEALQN
# B1: chr3:148802587:148802588:-_ENSG00000071794_ENST00000310053|hu_mus|hu_hu_hu_mus_False|1_18 (ssRNA)
# RNA: GGGAGUUCUACAGUCCGACGAUCUCCAACAACUUGUCCUCUCAUAGUUCCAAAUAAAACCAAAUCUUGCUCUUCAUCACUCGUUAGGAAGUCAUCUGGAGGAAUAAUGUCUUGGAAUUCAAAACGUGGCAAGAAAGUUGGAUACAACAGAGGAUUGAGCAUCA
# B2: chr10:33190432:33190433:-_ENSG00000150093_ENST00000302278|hu_mus|hu_hu_hu_mus_True|18_38 (ssRNA)
# RNA: GGGAGUUCUACAGUCCGACGAUCUACAUUUUCCAAACCUGCAUGUGAAUAAAACCCUGGCCACAGAGCCCCAAAACUACCCUACUGUGACUAAGAUAAUUGCUACUUGAGCUUGGUUGUUGUGGGACCGCCUGAGUAGGAUUCCAACAGAGGAUUGAGCAUCA
# B3: chr2:198351390:198351391:-_ENSG00000144381_ENST00000345042|hu_hu|hu_hu_hu_mus_False|68_78 (ssRNA)
# RNA: GGGAGUUCUACAGUCCGACGAUCUCAUUCCCACCCUCCACAGAAAGGCUGCUUCUGUUCUCAUCUGGUGGUGGCAAGCGCUACAGUCCUGAUGCUCACAGAACAGUAGAGAUGCCUCAGUGAUUUAAGUUGAAAGCAGGACACCAACAGAGGAUUGAGCAUCA
# B4: chr6:41757443:41757444:+_ENSG00000214736_ENST00000398881|hu_mus|hu_hu_hu_mus_False|1_58 (ssRNA)
# RNA: GGGAGUUCUACAGUCCGACGAUCGAACCGUGCAGAGGCAACAUCUCAGCCGACACUGGGGGAUGGGGGGGCAGUGGGAAACUAGGCAGGCAAGGAGAGGGAGUCAACUUCAGCUGCCACUCAGGUAGGAUCUUGUGGGGCACACAACAGAGGAUUGAGCAUCA
# B5: 139369262_139369382_2819_CDS_ENSG00000148396_ENST00000313050|human|control|control (ssRNA)
# RNA: GGGAGUUCUACAGUCCGACGAUCCUCUGGAACUGGCUGGGAUGGUGGUUGAACCAGCAAAUUAGCAGGCUGAUUAGAAACCAUUUCGGAAGCACCAGAACCUUGUGGAAAAUUACUUUGGGCAACACUGCUAGGCAGAGACAACAACAGAGGAUUGAGCAUCA
# B6: chr8:104442852:104442853:+_ENSG00000164934_ENST00000297579|hu_mus|motif|central (ssRNA)
# RNA: GGGAGUUCUACAGUCCGACGAUCCCUCAUUUCCAGGAUAACCUUUUUCAAAGGAGUAGCUUGCCGCAUAUCAUACAGUACGGUAUUCCUAUCAGAAGCACAACUUCCCAAGAGAAAUGUCUCAACAGGGUUAAAUUUAACACUCAACAGAGGAUUGAGCAUCA
# B7: chr1:151372964:151372965:+_ENSG00000159377_ENST00000290541|hu_mus|FALSE|FALSE (ssRNA)
# RNA: GGGAGUUCUACAGUCCGACGAUCCUUGGAGCGGCGGCUGUACAUGGCUCUUGUCAACCAUGAAUGAAUAGCUCUAGGGCUAUAGCUGUGUCCAUCUCCCAACAGCUCUUCAUCAAUCACCAUCUGGCCGAGAACUUGUUUCAACAACAGAGGAUUGAGCAUCA
# B8: chr10:124922180:124922181:+_ENSG00000154473_ENST00000368858|hu_mus|FALSE|FALSE (ssRNA)
# RNA: GGGAGUUCUACAGUCCGACGAUCUCCGUCAUUACUGAAGGCAAGGGAAGCGAUGCUGGUGGGGUACCGAUGGAACUGGCACAGGCGCUUCUUGUUAAAUGGGUCCCAAAUAUUGACGAAUCCAUCCGAACCACCUGUGGCAAACAACAGAGGAUUGAGCAUCA
# B9: chr16:45382771:45382772:-_ENSMUSG00000022661_ENSMUST00000163230|mus_mus|mus_mus_mus_hu_True|8_98 (ssRNA)
# RNA: GGGAGUUCUACAGUCCGACGAUCCUGGGUCAUGUUAUGGGCCCAAUGGACAGGGAGGGCAUGCUUCUCAAAAAAUGUGAGCUAUUGUCUAAGACUAACAAUAUUUAUCUAGCUAUAAAAAUAAGUUUUAAAUGGACGUUAAGACAACAGAGGAUUGAGCAUCA
# B10: 118889628_118890881_213_CDS_ENSG00000196655_ENST00000528230|human|control|control (ssRNA)
# RNA: GGGAGUUCUACAGUCCGACGAUCCUGGGAGCCGAUGGCAAAGAGCCUGCCAUUCACGUCCAUGCCAUUGAUGGCCAGCACUGCAUGACCCACUCGGAUGCCGUCCCGCUGGCCGAAAGCAACCAACACACGCUCAUCGUGUAGCAACAGAGGAUUGAGCAUCA
# B11: 76467099_76467472_1202_CDS_ENSMUSG00000059323_ENSMUST00000168185|mouse|control|control (ssRNA)
# RNA: GGGAGUUCUACAGUCCGACGAUCGAACCAAGUCUUAGCUUCCUCCAGAGCGUUGCCCUUGCGCAGCCUCAGUUCUUCCUCAUAGUGGUGCACAGCCUUGCGGUGAUCCUUCAUGUCUCCCAGUGUGGUGGCCAGGGAUACGUGCAACAGAGGAUUGAGCAUCA
# B12: 77926821_77926941_300_CDS_ENSG00000138758_ENST00000541121|human|control|control (ssRNA)
# RNA: GGGAGUUCUACAGUCCGACGAUCUUUAUUUAUCUGGUCUCCAAAUCCCACGGUGUCAACAAUGGUUAACUUCAGCCGUACAUUGCUUUCCUGAAGCUCAUAACUUCUGGCUUUUAACCGAACACCUGGUUCAUUGUGAGUAGCCAACAGAGGAUUGAGCAUCA
# B13: 178685600_178685720_3448_CDS_ENSMUSG00000057335_ENSMUST00000057037|mouse|control|control (ssRNA)
# RNA: GGGAGUUCUACAGUCCGACGAUCAACAGAUGCUUUGUCAGCAUCAGCAAGUUCACUGUCAGAAGCUUCACCAAGCCGGGCUCUUCGCAGGAGGGAAGUCCGGGUGGGCCGUGGCCUUGGGAGAGUAGUGGAUUUGCUUGUUGACAACAGAGGAUUGAGCAUCA
# B14: chr9:26842284:26842285:-_ENSG00000120159_ENST00000333916|hu_hu|motif|central (ssRNA)
# RNA: GGGAGUUCUACAGUCCGACGAUCAAUUAAAUGAUGUGGCUUUGUUCAAACAUACCUAAAAUUCAAAAUCAAGUUAAAUACCGGGGCUGGCUUUUUUAUAUCACCAGCUUUCAUUAGGGCUUUAAUCGCUCUUGCCCUCAUCUCCAACAGAGGAUUGAGCAUCA
# B15: chr17:57737884:57737885:+_ENSG00000141367_ENST00000269122|hu_mus|FALSE|FALSE (ssRNA)
# RNA: GGGAGUUCUACAGUCCGACGAUCGUUUCCCUGGGCGAAGAGAGCAUUAAAUUUCCGGGCAAAGAGUUCUUCAGCACCAGCUAAGUUGUUCCGCACAGCCAUUCUCAGAGCCAAGUCAGGAUUUUGUAGGACAUUGGUGAUAUACAACAGAGGAUUGAGCAUCA
# B16: chr1:243329018:243329019:-_ENSG00000143702_ENST00000366542|hu_hu|FALSE|FALSE (ssRNA)
# RNA: GGGAGUUCUACAGUCCGACGAUCCAAUUUAGUAGGUGUCCACUGAGCCUCCUCCCUUUGUUCUUGUUGUUGAAGUUUUGCUAAUGUUUGCUUUACCAAAGAAGUUUCCUUAUCAGUUUCACUUUUCUCUUUUCCAGGAGCAGACAACAGAGGAUUGAGCAUCA
# B17: chr5:38528984:38528985:-_ENSMUSG00000029126_ENSMUST00000031009|mus_mus|FALSE|FALSE (ssRNA)
# RNA: GGGAGUUCUACAGUCCGACGAUCGAUUCAGAUUGAAACAUAAACAUACUUUUCUUACAAAGAUUGUGGACUUAGAUAUUCUAUUUGCAAGGUGCCACAUCAGCCCCCCCCACCAGCCGUCCUGCCCCUUCCCACAGCACAGGACAACAGAGGAUUGAGCAUCA
# B18: 140291447_140297527_2219_CDS_ENSG00000164134_ENST00000296543|human|control|control (ssRNA)
# RNA: GGGAGUUCUACAGUCCGACGAUCAGUUUCAACCUUGGCCAGUUUCUCUGGAAUAAGUUCUUCUUUUGGACCUCCUAUCUCCUCAUCAUCAUCAUCCUUCUUCUUUUUCUGAUUUCUCUGCUGCUUUUCUUUUUCUGCAUUUUUCAACAGAGGAUUGAGCAUCA
# B19: chr7:150721943:150721944:-_ENSMUSG00000059119_ENSMUST00000072727|mus_hu|FALSE|FALSE (ssRNA)
# RNA: GGGAGUUCUACAGUCCGACGAUCCACCUGAAGUUGUUUCAAUGCAUUAAUUCUUCUUUUUACUGCUUUAGGUAAAGUUUCGAUGUAGCUGGAAGGGGUGUGAGGGACAUUGUCAAGUCGCUCCUGUAAAGCUGCCAGAACUCGCAACAGAGGAUUGAGCAUCA
# B20: chr8:95500983:95500984:-_ENSG00000164944_ENST00000437199|hu_hu|hu_hu_hu_mus_True|28_58 (ssRNA)
# RNA: GGGAGUUCUACAGUCCGACGAUCAGAACACAUCUAUCGAGUAAAGGACCGUACAUGACGGCCUCUACCACUGCCUCCCACUAACAACUUUCCUCUCGAGCCUCCACCUGCCGCUAUUGUACUAGCCCAGGACGGUCCCAGGCCCAACAGAGGAUUGAGCAUCA
# B21: 46723653_46724993_156_CDS_ENSG00000091651_ENST00000219097|human|control|control (ssRNA)
# RNA: GGGAGUUCUACAGUCCGACGAUCCAGGCACAUGACUGCACUGCUGGUCUCCGUGGUGCGUGCGGAGAGGCCGACACACUUCACCCGGGACAGGCGCAAGUACUCCUCUGCUUUCCUCAGCAUGUCGGGCUCGGCGAGGCCCAGCAACAGAGGAUUGAGCAUCA
# B22: chr4:122741918:122741919:-_ENSG00000145386_ENST00000274026|hu_mus|motif|central (ssRNA)
# RNA: GGGAGUUCUACAGUCCGACGAUCGUCUGGCUGCCUCUUCAUGUAACCCACUUUAGGUUUACAUUUAACCUCCAUUUCCCGGAGGUACGUGUGAAUGUCUUCUUGAUAGUCAGGUACUUCAUUAACGUUCACUGGCUUGUCUUCCAACAGAGGAUUGAGCAUCA
# Molecular target: T1, UNK ZnF1-3
# Assay: nsRBNS (natural sequence RNA bind-n-seq); RBNS binding buffer (assumed for nsRBNS): 25 mM Tris pH 7.5, 150 mM KCl, 3 mM MgCl2, 0.01% Triton X-100, 500 ug/ml BSA, 20 U/ml SUPERase-In, 4 C; UNK is unkempt and MSI1 is Musashi-1; names of the RNAs are library labels; protein concentration not given here; high values mean tight binding
row,Binder,binding signal [enrichment R]
1,B1,0.965
2,B2,1.13
3,B3,1.25
4,B4,2.84
5,B5,1.74
6,B6,1.15
7,B7,0.844
8,B8,0.716
9,B9,2.01
10,B10,0.495
11,B11,0.57
12,B12,0.491
13,B13,0.987
14,B14,0.797
15,B15,2.1
16,B16,0.346
17,B17,1.34
18,B18,0.231
19,B19,0.732
20,B20,1.28
21,B21,0.57
22,B22,0.321
